Results as given in PubChem BioAssay AID360 (National Center for Advancing Translational Sciences (NCATS), 2006).
Among all 48,000 compounds or so, about 550 (1.1%) were called active. Inconclusive results (about 4%) are left out. Cut-off read from the data, not from the text of the source: active = potency below about 15 µM; inconclusive = mostly about 16 µM to 33 µM; inactive = weaker than that. Some of the results follow.

biological target: Lysosomal acid glucosylceramidase (Homo sapiens) (UniProt P04062); assay: Glucocerebrosidase; conditions: purified enzyme, resorufin glucoside fluorescence (screen aimed at inhibitors), 20 min;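 note: the screen sought inhibitors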
Sequence of UniProt P04062 (P04062 whole entry, looked up): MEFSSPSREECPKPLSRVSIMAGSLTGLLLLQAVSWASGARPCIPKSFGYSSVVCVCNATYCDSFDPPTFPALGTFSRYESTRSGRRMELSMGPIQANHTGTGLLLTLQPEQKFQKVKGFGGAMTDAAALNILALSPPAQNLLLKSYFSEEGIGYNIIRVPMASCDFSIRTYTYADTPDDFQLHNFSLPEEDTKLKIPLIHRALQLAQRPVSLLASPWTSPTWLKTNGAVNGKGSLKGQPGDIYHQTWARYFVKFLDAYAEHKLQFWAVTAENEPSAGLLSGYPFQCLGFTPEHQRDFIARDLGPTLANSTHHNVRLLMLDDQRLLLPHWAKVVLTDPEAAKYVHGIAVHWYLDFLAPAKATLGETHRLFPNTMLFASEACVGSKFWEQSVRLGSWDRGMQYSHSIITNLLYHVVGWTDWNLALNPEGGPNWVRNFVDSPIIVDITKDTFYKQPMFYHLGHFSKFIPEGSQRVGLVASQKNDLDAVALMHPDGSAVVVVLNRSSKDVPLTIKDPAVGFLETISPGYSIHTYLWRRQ
Procedure, shortened: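 Normal human glucocerebrosidase (0.2 nM final) was assayed with resorufin β-D-glucopyranoside (30 uM final) in 50mM citric acid/KH2PO4, 10mM sodium taurocholate, 0.01% tween-20, pH 5.9. Compounds were titrated; fluorescence (Ex 548, Em 600) read after 20 min at RT.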
Potency is the fitted concentration of half-maximal effect.

Potency, inactive:
Cc1ccc(-c2nnc(N3CCN(C(=O)CN4C(=O)c5ccccc5C4=O)CC3)c3ccccc23)cc1 > 76.9 µM
COc1ccccc1-n1c(SCC(=O)NC(C)(C)C)nnc1-c1ccco1 > 76.9 µM
Cc1cc(C)n(-c2nc(NCCO)c3c4c(sc3n2)CCCC4)n1 > 76.9 µM
CCN=C1SC(CC(=O)Nc2sc3c(c2C#N)CCCC3)C(=O)N1CC (configuration not stated) > 76.9 µM
Cc1nc2cc(NC(=O)N3CCC(c4ccccc4)C3)ccc2n1C (configuration not stated)
O=C(CCN1C(=O)c2ccccc2C1=O)Nc1sc2c(c1C(=O)NCc1ccco1)CCCC2 > 76.9 µM
Cc1nc2ccc3nc(NC(=O)c4ccc5c(c4)OCCO5)sc3c2s1 > 76.9 µM
CSc1nccn1CC(=O)Nc1ccc(F)cc1 > 76.9 µM
CC1CN(Cc2nc3c(c(=O)n(C)c(=O)n3C)n2CCc2ccccc2)CC(C)O1 (configuration not stated) > 76.9 µM
CCCCn1c(-c2ccsc2)nc2c1c(=O)[nH]c(=O)n2CCC > 76.9 µM
CC[n+]1ccc(C)c2cc(S(=O)C(F)(F)F)ccc21 (configuration not stated) > 76.9 µM
CCn1c(CC(=O)Nc2ccccc2)nnc1SCC(=O)Nc1ccccc1C(=O)OC > 76.9 µM
CCCNC(=O)C1CN(S(=O)(=O)c2ccccc2)CCN1S(=O)(=O)c1ccccc1 (configuration not stated) > 76.9 µM
c1ccc2c(c1)CCN(Cc1nnnn1Cc1ccc3c(c1)OCO3)C2 > 76.9 µM
CCc1ccc(NC(=O)c2noc3c2CCCCC3)cc1 > 76.9 µM
Cc1ccc(NC(=O)c2cnccn2)c(OC(F)F)c1 > 76.9 µM
CC1(C)OC(=O)C(=CNc2ccc(F)cc2)C(=O)O1 > 76.9 µM
COCCN(C(=O)c1ccccc1)c1nnc(-c2cccnc2)s1 > 76.9 µM
CC(=O)CCc1c(C)c2cc(C)ccc2[nH]c1=O > 76.9 µM
O=C(NCc1ccc2c(c1)OCO2)c1ccc2c(c1)C(=O)N(CC1CCCO1)C2=O (configuration not stated) > 76.9 µM
CN1C(=S)SC(C)(NO)C1(C)C (configuration not stated) > 76.9 µM
COc1ccc(-c2noc(COc3ccc4c(c3)OCO4)n2)cc1 > 76.9 µM
N#Cc1ccccc1NC(=O)CSc1nnc(-c2ccccc2)n1-c1ccccc1 > 76.9 µM
COc1ccc(-c2cc(C(=O)N3CC4(C)CC3CC(C)(C)C4)no2)cc1OC (configuration not stated) > 76.9 µM
Cc1c(C(N)=O)sc2nc(-c3ccccc3)cn12 > 76.9 µM
COc1cc(S(=O)(=O)N2CCOCC2)ccc1NC(=O)CSc1nnc(N)s1 > 76.9 µM
CCOc1ccccc1C(=O)N1CCN=C1SC > 76.9 µM
CCc1nn2c(N3CCOCC3)cc(C)nc2c1-c1ccc(F)cc1 > 76.9 µM
COC(=O)NC1CCS(=O)(=O)C1 (configuration not stated) > 76.9 µM
O=C(NCc1ccco1)C1(S(=O)(=O)c2ccc(Cl)cc2)CC1 > 76.9 µM
COCCN(CCOC)C(=O)CCn1c(=O)oc2ccccc21 > 76.9 µM
CCn1c(N)c(C(=O)NCCCOC)sc1=S > 76.9 µM
CCn1c(SC)nnc1-c1nnc(SC)n1CC > 76.9 µM
COc1ccc(N2C(=O)CC(N3CCN(c4ccc(S(=O)(=O)N5CCCC5)cc4)CC3)C2=O)cc1 (configuration not stated) > 76.9 µM
O=S(=O)(c1cccs1)N1CCC(Cc2ccccc2)CC1 > 76.9 µM
CCN(CCCNC(=O)C1CCN(S(=O)(=O)c2cnc[nH]2)CC1)c1cccc(C)c1 > 76.9 µM
O=C(COC(=O)C1CC(=O)N(Cc2ccccc2)C1)Nc1ccc2c(c1)OCO2 (configuration not stated) > 76.9 µM
CCCC(c1nnnn1CCOC)N1CCN(C(=O)c2ccco2)CC1 (configuration not stated) > 76.9 µM
O=C(CCNc1ccc(Cl)c(C(F)(F)F)c1)c1ccco1 > 76.9 µM
Cc1ccccc1N(Cc1nnc2n1CCCCC2)C(=O)Nc1ccccc1 > 76.9 µM
CC(=O)CCc1ccc2oc(C(=O)O)c(C)c2c1 > 76.9 µM
CC(=O)NC1CC(C)(C)N(OC(C)=O)C(C)(C)C1 > 76.9 µM
CCOC(=O)N1CCC(NS(=O)(=O)c2ccc3c(c2)C(C)(C)C(=O)N3C)CC1 > 76.9 µM
CCC(=O)Oc1ccc(C2N(C(=O)CC)CCN2S(=O)(=O)c2ccc(C)cc2)cc1OC (configuration not stated) > 76.9 µM
CCCCCCn1c(CN2CCC(C)CC2)nc2c1c(=O)n(C)c(=O)n2C > 76.9 µM
Cc1noc(C)c1S(=O)(=O)N1CCC(C(=O)N2CCN(c3ccccc3Cl)CC2)CC1 > 76.9 µM
CCOC(=O)CNC(=O)Cn1cnc2c(nnn2-c2cccc(Cl)c2)c1=O > 76.9 µM
Cc1ccc(-c2noc(C3CCN(S(=O)(=O)c4ccc5c(c4)OCCO5)CC3)n2)o1 > 76.9 µM
COc1ccccc1NC(=O)N1CCN(c2ncccn2)CC1 > 76.9 µM
Cc1cc(=O)[nH]c(-n2nc(C)cc2C)n1 > 76.9 µM
Cc1nnc2ccc(Oc3ccc(-c4ccccc4)cc3)nn12 > 76.9 µM
COCCn1c(SCC(=O)N2CCC(C)CC2)nc2ccccc2c1=O > 76.9 µM
COc1ccc(N2CCN(c3nc4c(c(=O)n(C)c(=O)n4C)n3Cc3ccccc3)CC2)cc1 > 76.9 µM
O=C(CCCN1C(=O)CCC1=O)Nc1ccc2c(c1)OCCO2 > 76.9 µM
CCC(=O)N1CCc2cc(S(=O)(=O)CCC(=O)N3CCc4ccccc4C3)ccc21 > 76.9 µM
CCC(C)Cn1c(S(=O)(=O)O)nc2ccccc21 (configuration not stated) > 76.9 µM
CCCCn1c(SCC(=O)Nc2nnc(CC)s2)nc2c1c(=O)n(C)c(=O)n2C > 76.9 µM
